Consider 43 compounds from ChEMBL document CHEMBL4888484, “Replenishing the malaria drug discovery pipeline: Screening and hit evaluation of the MMV Hit Generation Library 1 (HGL1) against asexual blood stage Plasmodium falciparum ,using a nano luciferase reporter read-out” (2022).

As usually defined, the % Inhibition is the drop in the measured response relative to a control, in per cent.

The whole screen tested about 150,000 compounds, of which about 540 (0.36%) showed an effect of 50% or more. This is one part of the list.

The assay relates to Plasmodium falciparum. Description: Primary screen in NF54 nanoGlo assay, in single point, at 2uM, 72h; a lower Z score goes with more inhibition. Format: functional, Erythrocyte. Conditions: timepoint 72 hour.
In the case of `CN(C)C(=O)Nc1ccc(S(N)(=O)=O)cc1`, the “% Inhibition” value is on record as -12% and the Z score stood at 1.96.

Consider `CC(C)CS(=O)(=O)NC(=O)[C@H]1CC[C@H](C(C)C)CC1`, for which the “% Inhibition” value is on record as 0% and the Z score is given as 0.03.

Consider `Cc1ccc(C)c(CN2CCC(CNC(=O)[C@H](C(C)C)N3Cc4ccccc4C3=O)CC2)c1`, for which the “% Inhibition” value was -10% and the Z score came to 1.24.

Take `CC(C)c1ccc(CN2C(=O)NC3(CCCC3)C2=O)cc1`: the “% Inhibition” value turned out to be 2% and the Z score is -0.29.

Turning to `Cc1nc2c(-c3ccncc3)nsc2c(=O)n1CC(=O)NCc1ccc(Cl)cc1`, the “% Inhibition” value is reported as -8% and the Z score stood at 1.23.

In the case of `Cc1cnc(CCNC(=O)c2ccco2)n1C1CC1`, the “% Inhibition” value was -10% and the Z score was 1.51.

In the case of `Cc1[nH]c(=O)[nH]c1C(=O)N1Cc2sccc2CC1(C)C`, the “% Inhibition” value was found to be 35% and the Z score was -3.95.

`CC1CCC(CN2CCCCC2C(C)O)CC1` (stereo unspecified): the “% Inhibition” value is given as 3% and the Z score is -0.32.

For `CC(C)[C@@H](NC(=O)Cc1cccc(F)c1)C(=O)OC(C)(C)C`, the “% Inhibition” value is recorded as -7% and the Z score is 0.93.

For `CC(NC(=O)c1ccoc1)c1nc(C2CCCO2)no1` (stereo unspecified), the “% Inhibition” value was -1% and the Z score turned out to be 0.11.

`Cc1ccc(-n2nc(C(=O)NC3CCN(Cc4ccccc4)CC3)nc2-c2ccoc2)cc1`: the “% Inhibition” value was 0% and the Z score is reported as -0.04.

Regarding `CC(C)N1CCN(C(=O)C2CCCC2)CC1`, the “% Inhibition” value is given as -2% and the Z score worked out at 0.2.

Turning to `c1ccc2c(-c3nc([C@H]4CCOC4)no3)ccnc2c1`, the “% Inhibition” value was -11% and the Z score is 2.13.

Take `Cc1cc2ncc3c(n2n1)CCN(C(=O)Cc1ccccc1Cl)C3`: the “% Inhibition” value was -7% and the Z score worked out at 1.04.

As for `Cc1cc([C@H](C)NS(C)(=O)=O)c(C)o1`, the “% Inhibition” value is on record as 7% and the Z score is recorded as -0.87.

Turning to `Cc1nc2ccccc2c2nc(=O)c(-c3ccc(F)cc3)nn12`, the “% Inhibition” value is -3% and the Z score is reported as 0.4.

`CC[C@@H](CO)N(Cc1cccnc1)Cc1cnn2cccnc12`: the “% Inhibition” value came to 1% and the Z score was -0.13.

On to `Cc1nc2[nH]cc(C(=O)N3CCC(Cc4noc(C)n4)CC3)c(=O)n2n1`, for which the “% Inhibition” value is reported as 12% and the Z score is on record as -1.55.

Turning to `COc1ccc(CCN2C(=O)O[C@H]3CN(C4Cc5ccccc5C4)C[C@H]32)cc1`, the “% Inhibition” value is listed as 3% and the Z score is given as -0.39.

Take `CC(C)(C#N)Nc1ccc(Br)cc1`: the “% Inhibition” value is on record as -3% and the Z score is listed as 0.44.

With `CCn1ccnc1[C@H]1OCCC[C@@H]1NC(=O)OCCCF`, the “% Inhibition” value was 5% and the Z score was -1.03.

With `c1ccc2c(c1)C[C@H](CN1CCOCC1)O2`, the “% Inhibition” value is -7% and the Z score is listed as 1.36.

With `Cc1cc(C)n(CC(=O)Nc2n[nH]c(Cc3cccc(F)c3)n2)n1`, the “% Inhibition” value worked out at 27% and the Z score is recorded as -3.08.

For the compound `O=C(NC1CCCCCC1)[C@H]1CCCN(c2ccnc(-c3cccc(F)c3)n2)C1`, the “% Inhibition” value is on record as -1% and the Z score is recorded as 0.25.

Consider `Cc1ccc(-c2nc([C@H]3CCCN(CC(N)=O)C3)n(CC(F)(F)F)n2)o1`, for which the “% Inhibition” value was -4% and the Z score was 0.76.

With `Nc1nccnc1C(=O)OCc1csc(-c2ccccc2)n1`, the “% Inhibition” value was -8% and the Z score turned out to be 1.02.

Consider `Cc1cc(CN(C)C(=O)[C@@H]2CC(C(C)C)=NO2)on1`, for which the “% Inhibition” value is recorded as -13% and the Z score is reported as 1.39.

With `NC(=O)Cn1c(=O)n(CCCS(=O)(=O)C2CCCCC2)c(=O)c2ccccc21`, the “% Inhibition” value was -1% and the Z score came out at 0.21.

`CCc1ccccc1N(C)S(=O)(=O)c1c(C)sc(C)c1-c1cc(C(F)(F)F)on1`: the “% Inhibition” value is -6% and the Z score was determined as 1.04.

Regarding `COCc1nc(C(=O)N[C@H]2CCc3nccn3C2)cs1`, the “% Inhibition” value was -3% and the Z score was 0.71.

In the case of `Cc1cccc(C(=O)N2CCC3(CC2)OC[C@@H](C(=O)NCc2ccncc2)N3C(=O)c2ccc(F)cc2)c1`, the “% Inhibition” value is reported as -15% and the Z score was 1.5.

Turning to `CC(=O)N(CCN1CCCCC1)[C@H]1CCCN(S(=O)(=O)C(C)C)C1`, the “% Inhibition” value is reported as -8% and the Z score came out at 1.11.

Regarding `O=C1NC(=O)[C@@]2(CCN(C(=O)NC3CCCCCCC3)C2)N1`, the “% Inhibition” value is reported as -9% and the Z score worked out at 1.73.

Consider `CN(CC(=O)NC1CCCCCC1)Cc1ncon1`, for which the “% Inhibition” value is reported as -6% and the Z score is listed as 1.07.

`CCNS(=O)(=O)c1cc(C(=O)N2CCCC2)cs1`: the “% Inhibition” value was -9% and the Z score is 0.93.

In the case of `O=C(NCCC1=CCCCC1)c1ccc2ccccc2n1`, the “% Inhibition” value was -15% and the Z score is 2.78.

Regarding `CCOCc1nnc2n1CCN(C(=O)OC(C)(C)C)C2`, the “% Inhibition” value is -1% and the Z score is listed as 0.19.

As to `CC(C)(CC#N)CS(=O)(=O)N1CCC(F)(c2ccc(Cl)cc2)CC1`, the “% Inhibition” value was -7% and the Z score is listed as 1.04.

Consider `CC(=O)c1cccc(NC(=O)CN(c2ccc(C)cc2)S(=O)(=O)c2cccc3nonc23)c1`, for which the “% Inhibition” value is given as 4% and the Z score is reported as -0.57.

For the compound `CC[C@@](CNC(=O)C(=O)Nc1ccon1)(OC)c1ccccc1`, the “% Inhibition” value is reported as 19% and the Z score is recorded as -2.46.

As for `CN(C)Cc1nnc([C@H]2C[C@@H](NC(=O)C3CCOCC3)C2)n1C`, the “% Inhibition” value was -1% and the Z score is reported as 0.12.

Take `O=C(Nc1nnc(-c2cc3ccccc3o2)o1)C(c1ccccc1)c1ccccc1`: the “% Inhibition” value is -10% and the Z score came out at 1.12.

Consider `CCn1cncc1CN1CCC[C@H](CNC(=O)c2ccc(C)nc2)C1`, for which the “% Inhibition” value is reported as -1% and the Z score came to 0.15.
